Experimental data taken from the supplement of paper PMC4604168 (melanoma cell lines).
The list shows a part of the results. Single values are uncertain, as repeats are few or missing.

Tests used:
Experiment in all cases: cell count relative to DMSO control; melanoma cells; higher = more viable cells
Details in all cases: library dose: standard library concentration; 72 h
G361 = system: G361
IPC-298 = system: IPC-298
IST-MEL1 = system: IST-MEL1
LB2518-MEL = system: LB2518-MEL
LOXIMVI = system: LOXIMVI
MEL-HO = system: MEL-HO
MZ2-MEL = system: MZ2-MEL
MeWo = system: MeWo
RPMI7951 = system: RPMI7951
RVH-421 = system: RVH-421
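Further: cells treated in 1,536-well plates, then fixed and DAPI-stained, with nuclei counted from automated high-throughput microscope images.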

SMILES | cell count (G361) [%] | cell count (IPC-298) [%] | cell count (IST-MEL1) [%] | cell count (LB2518-MEL) [%] | cell count (LOXIMVI) [%] | cell count (MEL-HO) [%] | cell count (MZ2-MEL) [%] | cell count (MeWo) [%] | cell count (RPMI7951) [%] | cell count (RVH-421) [%]
Cc1cn(-c2cc(NC(=O)c3ccc(C)c(Nc4nccc(-c5cccnc5)n4)c3)cc(C(F)(F)F)c2)cn1 [nilotinib] + NC1(c2ccc(-c3nc4ccn5c(=O)[nH]nc5c4cc3-c3ccccc3)cc2)CCC1 [MK2206] (first compound 1 µM, partner dose 2 µM) | 73.6 | 104 | 82.5 | 95.1 | 114 | 74.6 | 102 | 77.8 | 73.4 | 63.1
Cn1c(=O)n(-c2ccc(C(C)(C)C#N)cc2)c2c3cc(-c4cnc5ccccc5c4)ccc3ncc21 + CCCCCCCCCCCC1=C(O)C(=O)C=C(O)C1=O [Embelin] (first compound 0.02 µM, partner dose 6 µM) | 62.6 | 73.9 | 49.8 | 94.1 | 98.9 | 72.7 | 72.4 | 65 | 88.4 | 74.6
Cc1cc(Nc2cc(N3CCN(C)CC3)nc(/C=C/c3ccccc3)n2)n[nH]1 + CO[C@H]1C[C@@H]2CC[C@@H](C)[C@@](O)(O2)C(=O)C(=O)N2CCCC[C@H]2C(=O)O[C@H]([C@H](C)C[C@@H]2CC[C@@H](OCCO)[C@H](OC)C2)CC(=O)[C@H](C)/C=C(\C)[C@@H](O)[C@@H](OC)C(=O)[C@H](C)C[C@H](C)/C=C/C=C/C=C/1C [everolimus] (first compound 0.2 µM, partner dose 0.1 µM) | 53.8 | 60.7 | 85.7 | 58.7 | 66.8 | 65.4 | 64.2 | 56.6 | 51.5 | 88.4
Cc1cn(-c2cc(NC(=O)c3ccc(C)c(Nc4nccc(-c5cccnc5)n4)c3)cc(C(F)(F)F)c2)cn1 [nilotinib] + Cn1c(=O)n(-c2ccc(C(C)(C)C#N)cc2)c2c3cc(-c4cnc5ccccc5c4)ccc3ncc21 [NVP-BEZ235] (first compound 1 µM, partner dose 0.02 µM) | 58.7 | 74 | 70.4 | 76.4 | 89.4 | 64.9 | 72.8 | 70.3 | 70.7 | 88.9
Cc1cc(Nc2cc(N3CCN(C)CC3)nc(/C=C/c3ccccc3)n2)n[nH]1 + Cc1ccc(NC(=O)c2cccc(N(C)C)c2)cc1NC(=O)c1ccc(O)cc1 [ZM336372] (first compound 0.2 µM, partner dose 10 µM) | 94.2 | 103 | 108 | 61.6 | 75.6 | 99.7 | 114 | 85.7 | 77.2 | 78.1
Cc1cn(-c2cc(NC(=O)c3ccc(C)c(Nc4nccc(-c5cccnc5)n4)c3)cc(C(F)(F)F)c2)cn1 [nilotinib] + CS(=O)(=O)c1ccc(C(=O)Nc2ccc(Cl)c(-c3ccccn3)c2)c(Cl)c1 [vismodegib] (first compound 1 µM, partner dose 5 µM) | 90.5 | 105 | 93.1 | 88.7 | 170 | 106 | 123 | 110 | 107 | 119
CC(C)C[C@H](NC(=O)[C@H](Cc1ccccc1)NC(=O)c1cnccn1)B(O)O [Bortezomib] + Nc1cccc2c1CN(C1CCC(=O)NC1=O)C2=O [lenalidomide] (first compound 0.005 µM, partner dose 5 µM) | 1.59 | 9.75 | 9.29 | 2.8 | 26.5 | 34.8 | 3.7 | 23.8 | 6.81 | 10.6
Cc1cc(Nc2cc(N3CCN(C)CC3)nc(/C=C/c3ccccc3)n2)n[nH]1 + CS(=O)(=O)CCNCc1ccc(-c2ccc3ncnc(Nc4ccc(OCc5cccc(F)c5)c(Cl)c4)c3c2)o1 [lapatinib] (first compound 0.2 µM, partner dose 4 µM) | 67.1 | 62.3 | 88.6 | 63.4 | 56.6 | 70.5 | 54.2 | 62.3 | 53.2 | 61.9
Cc1cn(-c2cc(NC(=O)c3ccc(C)c(Nc4nccc(-c5cccnc5)n4)c3)cc(C(F)(F)F)c2)cn1 [nilotinib] + COc1cc2ncnc(Nc3ccc(Oc4ccccc4)cc3)c2cc1OC [SrcI1] (first compound 1 µM, partner dose 10 µM) | 49.3 | 78.4 | 76.2 | 104 | 83.3 | 86.4 | 60.4 | 71.9 | 33.9 | 88.9
COc1ccc(C2=N[C@@H](c3ccc(Cl)cc3)[C@@H](c3ccc(Cl)cc3)N2C(=O)N2CCNC(=O)C2)c(OC(C)C)c1 [Nutlin-3] + NC(=O)Nc1cc(-c2cccc(F)c2)sc1C(=O)N[C@H]1CCCNC1 [AZD7762] (first compound 0.5 µM, partner dose 0.1 µM) | 69.6 | 97.8 | 94.3 | 59.7 | 43.7 | 76.3 | 115 | 58.6 | 20.9 | 78.3
CC(C)C[C@H](NC(=O)[C@H](Cc1ccccc1)NC(=O)c1cnccn1)B(O)O [Bortezomib] + Nc1nc(F)nc2c1ncn2[C@@H]1O[C@H](CO)[C@@H](O)[C@@H]1O [fludarabine] (first compound 0.005 µM, partner dose 1 µM) | 2.69 | 5.43 | 8.1 | 4.52 | 39 | 36 | 7.31 | 13.7 | 2.26 | 17.5
